Laboratory results taken from article PMC9911399, “Two distinct binding modes provide the RNA-binding protein RbFox with extraordinary sequence specificity”.
Numbering of substitutions follows the chain as printed; changes in the protein carry UniProt numbers. Some of the results follow.

T1: RBFOX1 RRM (Homo sapiens, UniProt Q9NWB1 109-208)
T1 sequence: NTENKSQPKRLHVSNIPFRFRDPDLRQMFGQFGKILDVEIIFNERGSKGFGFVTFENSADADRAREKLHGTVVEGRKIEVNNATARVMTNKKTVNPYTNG

B1: CUUCUAU (DNA:RNA)
RNA: GGGAGACCGGAAUUCAGAUUGUCCCUUCUAUUUAAAUCCCGUCGUAGCCACCA
DNA 1: CAATCTGAATTCCGGTCTCCC
DNA 2: TGGTGGCTACGACGGGATT
B2: AUUUGCA (DNA:RNA)
RNA: B1 RNA with C25A, C28U, U29G, A30C, U31A
DNA 1: CAATCTGAATTCCGGTCTCCC
DNA 2: TGGTGGCTACGACGGGATT
B3: UCUGUAU (DNA:RNA)
RNA: B1 RNA with C25U, U26C, C28G
DNA 1: CAATCTGAATTCCGGTCTCCC
DNA 2: TGGTGGCTACGACGGGATT
B4: GAGCUGA (DNA:RNA)
RNA: B1 RNA with C25G, U26A, U27G, A30G, U31A
DNA 1: CAATCTGAATTCCGGTCTCCC
DNA 2: TGGTGGCTACGACGGGATT
B5: UUACGUC (DNA:RNA)
RNA: B1 RNA with C25U, U27A, U29G, A30U, U31C
DNA 1: CAATCTGAATTCCGGTCTCCC
DNA 2: TGGTGGCTACGACGGGATT
B6: UCUUUAA (DNA:RNA)
RNA: B1 RNA with C25U, U26C, C28U, U31A
DNA 1: CAATCTGAATTCCGGTCTCCC
DNA 2: TGGTGGCTACGACGGGATT
B7: GCUCAGA (DNA:RNA)
RNA: B1 RNA with C25G, U26C, U29A, A30G, U31A
DNA 1: CAATCTGAATTCCGGTCTCCC
DNA 2: TGGTGGCTACGACGGGATT
B8: ACCCCCU (DNA:RNA)
RNA: B1 RNA with C25A, U26C, U27C, U29C, A30C
DNA 1: CAATCTGAATTCCGGTCTCCC
DNA 2: TGGTGGCTACGACGGGATT
B9: GGUUGUG (DNA:RNA)
RNA: B1 RNA with C25G, U26G, C28U, U29G, A30U, U31G
DNA 1: CAATCTGAATTCCGGTCTCCC
DNA 2: TGGTGGCTACGACGGGATT
B10: GACCACU (DNA:RNA)
RNA: B1 RNA with C25G, U26A, U27C, U29A, A30C
DNA 1: CAATCTGAATTCCGGTCTCCC
DNA 2: TGGTGGCTACGACGGGATT
B11: GCCACGA (DNA:RNA)
RNA: GGGAGACCGGAAUUCAGAUUGUCCGCCACGAUUAAAUCCCGUCGUAGCCACCA
DNA 1: CAATCTGAATTCCGGTCTCCC
DNA 2: TGGTGGCTACGACGGGATT
B12: AAAAAAG (DNA:RNA)
RNA: B1 RNA with C25A, U26A, U27A, C28A, U29A, U31G
DNA 1: CAATCTGAATTCCGGTCTCCC
DNA 2: TGGTGGCTACGACGGGATT
B13: CAUCUGC (DNA:RNA)
RNA: B1 RNA with U26A, A30G, U31C
DNA 1: CAATCTGAATTCCGGTCTCCC
DNA 2: TGGTGGCTACGACGGGATT
B14: UUGUCCG (DNA:RNA)
RNA: B1 RNA with C25U, U27G, C28U, U29C, A30C, U31G
DNA 1: CAATCTGAATTCCGGTCTCCC
DNA 2: TGGTGGCTACGACGGGATT
B15: AACAGCC (DNA:RNA)
RNA: B11 RNA with G25A, C26A, C29G, G30C, A31C
DNA 1: CAATCTGAATTCCGGTCTCCC
DNA 2: TGGTGGCTACGACGGGATT
B16: GAGUCAC (DNA:RNA)
RNA: B11 RNA with C26A, C27G, A28U, G30A, A31C
DNA 1: CAATCTGAATTCCGGTCTCCC
DNA 2: TGGTGGCTACGACGGGATT
B17: UUAGCGU (DNA:RNA)
RNA: B1 RNA with C25U, U27A, C28G, U29C, A30G
DNA 1: CAATCTGAATTCCGGTCTCCC
DNA 2: TGGTGGCTACGACGGGATT
B18: UGUAUUA (DNA:RNA)
RNA: B1 RNA with C25U, U26G, C28A, A30U, U31A
DNA 1: CAATCTGAATTCCGGTCTCCC
DNA 2: TGGTGGCTACGACGGGATT
B19: AGUUGUA (DNA:RNA)
RNA: B1 RNA with C25A, U26G, C28U, U29G, A30U, U31A
DNA 1: CAATCTGAATTCCGGTCTCCC
DNA 2: TGGTGGCTACGACGGGATT
B20: AUCGGGG (DNA:RNA)
RNA: B11 RNA with G25A, C26U, A28G, C29G, A31G
DNA 1: CAATCTGAATTCCGGTCTCCC
DNA 2: TGGTGGCTACGACGGGATT
B21: AACAGUA (DNA:RNA)
RNA: B11 RNA with G25A, C26A, C29G, G30U
DNA 1: CAATCTGAATTCCGGTCTCCC
DNA 2: TGGTGGCTACGACGGGATT
B22: ACAGCAG (DNA:RNA)
RNA: B11 RNA with G25A, C27A, A28G, G30A, A31G
DNA 1: CAATCTGAATTCCGGTCTCCC
DNA 2: TGGTGGCTACGACGGGATT
B23: GCUACAA (DNA:RNA)
RNA: B11 RNA with C27U, G30A
DNA 1: CAATCTGAATTCCGGTCTCCC
DNA 2: TGGTGGCTACGACGGGATT
B24: GAGUCGG (DNA:RNA)
RNA: B11 RNA with C26A, C27G, A28U, A31G
DNA 1: CAATCTGAATTCCGGTCTCCC
DNA 2: TGGTGGCTACGACGGGATT
B25: GUCGAAG (DNA:RNA)
RNA: B1 RNA with C25G, U27C, C28G, U29A, U31G
DNA 1: CAATCTGAATTCCGGTCTCCC
DNA 2: TGGTGGCTACGACGGGATT
B26: GUAUUCA (DNA:RNA)
RNA: B1 RNA with C25G, U27A, C28U, A30C, U31A
DNA 1: CAATCTGAATTCCGGTCTCCC
DNA 2: TGGTGGCTACGACGGGATT
B27: GGAUAUG (DNA:RNA)
RNA: B11 RNA with C26G, C27A, A28U, C29A, G30U, A31G
DNA 1: CAATCTGAATTCCGGTCTCCC
DNA 2: TGGTGGCTACGACGGGATT
B28: AGGUCAC (DNA:RNA)
RNA: B1 RNA with C25A, U26G, U27G, C28U, U29C, U31C
DNA 1: CAATCTGAATTCCGGTCTCCC
DNA 2: TGGTGGCTACGACGGGATT
B29: ACUACCG (DNA:RNA)
RNA: B11 RNA with G25A, C27U, G30C, A31G
DNA 1: CAATCTGAATTCCGGTCTCCC
DNA 2: TGGTGGCTACGACGGGATT
B30: UGAGCCG (DNA:RNA)
RNA: B11 RNA with G25U, C26G, C27A, A28G, G30C, A31G
DNA 1: CAATCTGAATTCCGGTCTCCC
DNA 2: TGGTGGCTACGACGGGATT
B31: GAUGCCC (DNA:RNA)
RNA: B11 RNA with C26A, C27U, A28G, G30C, A31C
DNA 1: CAATCTGAATTCCGGTCTCCC
DNA 2: TGGTGGCTACGACGGGATT

What follows are binders tested against T1, RBFOX1 RRM (assay: EMSA; HiTS-Eq, 1 nM pool, 10 min; buffer printed only for the single-RNA assays: 10 mM Tris pH 7.5, 150 mM NaCl, 3.4 mM EDTA, 0.001% NP-40, 30 C). Settings: tags: His6 N-terminal (pET28a); label: 5' 32P.
How it was run: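 A pool of RNA with 7 randomized nucleotides, 5′-radiolabelled and with DNA-annealed flanks, was equilibrated at 1 nM for 10 min in 50 µL with purified RbFox RRM, wild type or mutant, across increasing protein concentrations. Free RNA was separated by 8% native PAGE, excised, reverse-transcribed, barcoded by PCR and sequenced. Relative association constants were obtained from read-count changes of each RNA species versus the control reaction and normalised to the cognate motif.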

Row | Binder | binding signal
1 | B1 | 0.00211 KA relative to UGCAUGU
2 | B2 | 0.0153 KA relative to UGCAUGU
3 | B3 | 0.0123 KA relative to UGCAUGU
4 | B4 | 0.0196 KA relative to UGCAUGU
5 | B5 | 0.00945 KA relative to UGCAUGU
6 | B6 | 0.00894 KA relative to UGCAUGU
7 | B7 | 0.0132 KA relative to UGCAUGU
8 | B8 | 0.00197 KA relative to UGCAUGU
9 | B9 | 0.0164 KA relative to UGCAUGU
10 | B10 | 0.00545 KA relative to UGCAUGU
11 | B11 | 0.0105 KA relative to UGCAUGU
12 | B12 | 0.00105 KA relative to UGCAUGU
13 | B13 | 0.00886 KA relative to UGCAUGU
14 | B14 | 0.0163 KA relative to UGCAUGU
15 | B15 | 0.00359 KA relative to UGCAUGU
16 | B16 | 0.0121 KA relative to UGCAUGU

Row | Binder | binding signal
17 | B17 | 0.0154 KA relative to UGCAUGU
18 | B18 | 0.00643 KA relative to UGCAUGU
19 | B19 | 0.0101 KA relative to UGCAUGU
20 | B20 | 0.00735 KA relative to UGCAUGU
21 | B21 | 0.00245 KA relative to UGCAUGU
22 | B22 | 0.00511 KA relative to UGCAUGU
23 | B23 | 0.0067 KA relative to UGCAUGU
24 | B24 | 0.0121 KA relative to UGCAUGU
25 | B25 | 0.0181 KA relative to UGCAUGU
26 | B26 | 0.00532 KA relative to UGCAUGU
27 | B27 | 0.0169 KA relative to UGCAUGU
28 | B28 | 0.0109 KA relative to UGCAUGU
29 | B29 | 0.00321 KA relative to UGCAUGU
30 | B30 | 0.0121 KA relative to UGCAUGU
31 | B31 | 0.0136 KA relative to UGCAUGU
